Laboratory results: patent US5475132A, “Antifungal agents based on amides containing a phenyl group” (Rhone-Poulenc Agrochimie, priority 1988, dated 1995)

system: Plasmopara viticola; assay: Example B2: treatment of vine mildew (Plasmopara viticola) on vine cuttings; conditions: 192 h, 330 ppm (0.33 g/l), vine cuttings, 8 days after infection, read-out: inhibition of the development of the mould
Procedure: Treatment of vine mildew (Plasmopara viticola)
Vine (Vitis vinifera) cuttings of the Chardonnay variety are cultivated in pots. When these plants are 2 months old (8 to 10 leaf stage, height 20 to 30 cm) they are treated in the same manner as in Example B1.
After drying for 24 hours, each plant is infected by spraying with an aqueous suspension of spores of Plasmopara viticola which is responsible for vine mildew, at the rate of about 5 ml/plant (that is about 100,000 spores per plant).
After this infection, the vine plants are incubated for two days at about 18° C. in a saturated atmosphere, then for five days at about 20°-22° C. and 90-100% relative humidity.
Eight days after infection, the results obtained in the case of the plants treated with the active material to be tested are compared with those obtained in the case of plants used as controls.

Structure (SMILES)	inhibition at 330 ppm [%]
CCN(C)C(=O)c1ccc(-c2ccc(F)cc2)nc1-c1ccc(OC)c(OC)c1 [Compound 350]	≥ 80
COCCN(C)C(=O)c1ccc(-c2ccc(F)cc2)nc1-c1ccc(OC)c(OC)c1 [Compound 353]	≥ 80
COc1ccc(-c2nc(-c3ccc(C(C)C)cc3)ccc2C(=O)N2CCOCC2)cc1OC [Compound 356]	≥ 80
C=CCN(C)C(=O)c1ccc(-c2ccccc2)nc1-c1ccc(OC)c(OC)c1 [Compound 359]	≥ 80
CCN(CC)C(=O)c1ccc(-c2ccc(Cl)cc2)nc1-c1ccc(OC)c(OC)c1 [Compound 364]	≥ 80
CCN(C)C(=O)c1ccc(-c2ccccc2)nc1-c1ccc(OC)c(OC)c1 [Compound 369]	≥ 80
COc1ccc(-c2nc(-c3ccccc3)ccc2C(=O)N(C)C)cc1OC [Compound 370]	≥ 80
COCCN(C)C(=O)c1ccc(-c2ccc(Cl)cc2)nc1-c1ccc(OC)c(OC)c1 [Compound 379]	≥ 80
COc1ccc(-c2nc(-c3ccc(C#N)cc3)ccc2C(=O)N2CCOCC2)cc1OC [Compound 382]	≥ 80
COc1ccc(-c2nc(-c3ccc(C)cc3)ccc2C(=O)N2CCOCC2)cc1OC [Compound 384]	≥ 80
COc1ccc(-c2nc(-c3ccc(Br)cc3)ccc2C(=O)N2CCOCC2)cc1OC [Compound 385]	≥ 80
C=CCN(C)C(=O)c1ccc(-c2ccc(Cl)cc2)nc1-c1ccc(OC)c(OC)c1 [Compound 386]	≥ 80
CCN(CC)C(=O)c1ccc(-c2ccccc2)nc1-c1ccc(OC)c(OC)c1 [Compound 388]	≥ 80
COc1ccc(-c2nc(-c3ccccc3C)ccc2C(=O)N2CCOCC2)cc1OC [Compound 391]	≥ 80
COCCN(C)C(=O)c1ccc(-c2ccc(Br)cc2)nc1-c1ccc(OC)c(OC)c1 [Compound 393]	≥ 80
COc1ccc(-c2nc(-c3ccccc3)ccc2C(=O)N(C)CCOC(C)=O)cc1OC [Compound 396]	≥ 80
COc1ccc(-c2nc(-c3ccc(Cl)cc3)ncc2C(=O)N2CCOCC2)cc1OC [Compound 407, 2-(4-Chlorophenyl)-4-(3,4-dimethoxyphenyl)-5-morpholinocarbonylpyrimidine]	≥ 80
COc1ccc(-c2nc(-c3ccccc3)ncc2C(=O)N2CCOCC2)cc1OC [Compound 414]	≥ 80
CCN(C)C(=O)c1cnc(-c2ccccc2)nc1-c1ccc(OC)c(OC)c1 [Compound 415]	≥ 80
COCCN(C)C(=O)c1cnc(-c2ccccc2)nc1-c1ccc(OC)c(OC)c1 [Compound 416]	≥ 80
COc1ccc(-c2nc(Oc3ccc(C)cc3)ncc2C(=O)N2CCOCC2)cc1OC [Compound 433, 4-(3,4-dimethoxyphenyl)-2-(4-methylphenoxy)-5-morpholinocarbonylpyrimidine]	≥ 80
COc1ccc(-c2nc(SCc3ccccc3)ncc2C(=O)N2CCOCC2)cc1OC [Compound 434]	≥ 80
COc1ccc(-c2nc(SCc3ccc(Cl)cc3)ncc2C(=O)N2CCOCC2)cc1OC [Compound 435]	≥ 80
COc1ccc(-c2nc(Oc3ccccc3C)ncc2C(=O)N2CCOCC2)cc1OC [Compound 440]	≥ 80
COc1ccc(-c2nc(Sc3cccc(Cl)c3)ncc2C(=O)N2CCOCC2)cc1OC [Compound 445]	≥ 80
COc1ccc(-c2nc(N3CCCCC3)ncc2C(=O)N2CCOCC2)cc1OC [Compound 458]	≥ 80

system: Phytophthora infestans; assay: whole plant or invertebrate; conditions: in Solanum lycopersicum, 168 h, read-out: inhibition of the development of the mould
Procedure: Treatment of tomato mildew (Phytophthora infestans)
Tomato (Lycopersicum esculentum) plants, of the Marmande variety, are cultivated in pots. When these plants are a month old (5 to 6 leaf stage, height 12 to 15 cm), they are treated by spraying with a suspension or aqueous solution of the material to be tested, which is at the desired concentration and contains a surfactant which is a condensate of sorbitan monooleate with 20 molecules of ethylene oxide. This surfactant is at a concentration equal to half the concentration of the active material. Each tomato plant receives about 5 ml of the solution or dispersion. The treatment is carried out on two plants for each concentration of active material to be tested. Plants used as controls are treated with a solution which contains no active material, but contains the same surfactant at an identical concentration.
After drying for 24 hours, each plant is infected by spraying with an aqueous suspension of spores of Phytophthora infestans, which is responsible for tomato mildew, at a rate of about 5 ml/plant (that is about 50,000 spores per plant).
After this infection, the tomato plants are incubated for one day at about 15° C. in a saturated atmosphere, then for five days at about 17° C. and 70% to 90% relative humidity.
Seven days after infection, the results obtained in the case of plants treated with the active material to be tested are compared with those obtained in the case of plants used as controls.

Structure (SMILES)	inhibition at 1000 ppm [%]
CCN(C)C(=O)c1ccc(-c2ccc(F)cc2)nc1-c1ccc(OC)c(OC)c1 [Compound 350]	≥ 80
COCCN(C)C(=O)c1ccc(-c2ccc(F)cc2)nc1-c1ccc(OC)c(OC)c1 [Compound 353]	≥ 80
COc1ccc(-c2nc(-c3ccc(C(C)C)cc3)ccc2C(=O)N2CCOCC2)cc1OC [Compound 356]	≥ 80
C=CCN(C)C(=O)c1ccc(-c2ccccc2)nc1-c1ccc(OC)c(OC)c1 [Compound 359]	≥ 80
CCN(CC)C(=O)c1ccc(-c2ccc(Cl)cc2)nc1-c1ccc(OC)c(OC)c1 [Compound 364]	≥ 80
CCN(C)C(=O)c1ccc(-c2ccccc2)nc1-c1ccc(OC)c(OC)c1 [Compound 369]	≥ 80
COc1ccc(-c2nc(-c3ccccc3)ccc2C(=O)N(C)C)cc1OC [Compound 370]	≥ 80
COCCN(C)C(=O)c1ccc(-c2ccc(Cl)cc2)nc1-c1ccc(OC)c(OC)c1 [Compound 379]	≥ 80
COc1ccc(-c2nc(-c3ccc(C#N)cc3)ccc2C(=O)N2CCOCC2)cc1OC [Compound 382]	≥ 80
COc1ccc(-c2nc(-c3ccc(C)cc3)ccc2C(=O)N2CCOCC2)cc1OC [Compound 384]	≥ 80
COc1ccc(-c2nc(-c3ccc(Br)cc3)ccc2C(=O)N2CCOCC2)cc1OC [Compound 385]	≥ 80
C=CCN(C)C(=O)c1ccc(-c2ccc(Cl)cc2)nc1-c1ccc(OC)c(OC)c1 [Compound 386]	≥ 80
CCN(CC)C(=O)c1ccc(-c2ccccc2)nc1-c1ccc(OC)c(OC)c1 [Compound 388]	≥ 80
COc1ccc(-c2nc(-c3ccccc3C)ccc2C(=O)N2CCOCC2)cc1OC [Compound 391]	≥ 80
COCCN(C)C(=O)c1ccc(-c2ccc(Br)cc2)nc1-c1ccc(OC)c(OC)c1 [Compound 393]	≥ 80
COc1ccc(-c2nc(-c3ccccc3)ccc2C(=O)N(C)CCOC(C)=O)cc1OC [Compound 396]	≥ 80
COc1ccc(-c2nc(-c3ccc(Cl)cc3)ncc2C(=O)N2CCOCC2)cc1OC [Compound 407, 2-(4-Chlorophenyl)-4-(3,4-dimethoxyphenyl)-5-morpholinocarbonylpyrimidine]	≥ 80
COc1ccc(-c2nc(-c3ccccc3)ncc2C(=O)N2CCOCC2)cc1OC [Compound 414]	≥ 80
CCN(C)C(=O)c1cnc(-c2ccccc2)nc1-c1ccc(OC)c(OC)c1 [Compound 415]	≥ 80
COCCN(C)C(=O)c1cnc(-c2ccccc2)nc1-c1ccc(OC)c(OC)c1 [Compound 416]	≥ 80
COc1ccc(-c2nc(Oc3ccc(C)cc3)ncc2C(=O)N2CCOCC2)cc1OC [Compound 433, 4-(3,4-dimethoxyphenyl)-2-(4-methylphenoxy)-5-morpholinocarbonylpyrimidine]	≥ 80
COc1ccc(-c2nc(SCc3ccccc3)ncc2C(=O)N2CCOCC2)cc1OC [Compound 434]	≥ 80
COc1ccc(-c2nc(SCc3ccc(Cl)cc3)ncc2C(=O)N2CCOCC2)cc1OC [Compound 435]	≥ 80
COc1ccc(-c2nc(Oc3ccccc3C)ncc2C(=O)N2CCOCC2)cc1OC [Compound 440]	≥ 80
COc1ccc(-c2nc(Sc3cccc(Cl)c3)ncc2C(=O)N2CCOCC2)cc1OC [Compound 445]	≥ 80
COc1ccc(-c2nc(N3CCCCC3)ncc2C(=O)N2CCOCC2)cc1OC [Compound 458]	≥ 80
